The list shows a part of the results. Sequences were assembled here from the parent chain. Inactive controls read about 0.05.
B1: TEV protease; numbered along this chain (parent)
chain: MGESLFKGPRDYNPISSSICHLTNESDGHTTSLYGIGFGPFIITNKHLFRRNNGTLVVQSLHGVFKVKDTTTLQQHLVDGRDMIIIRMPKDFPPFPQKLKFREPQREERICLVTTNFQTKSMSSMVSDTSCTFPSGDGIFWKHWIQTKDGQCGSPLVSTRDGFIVGIHSASNFTNTNNYFTSVPKNFMELLTNQEAQQWVSGWRLNADSVLWGGHKVFMVKPEEPFQPVKEATQL

Variants of: B1
Assay: raw area under fraction-flipped curve 0-4 h after induction (AUC4h, not background-subtracted), DNA-recorder readout of cleavage of the substrate (dimensionless); higher = more cleavage of the substrate by the protease variant
Conditions: temperature: 34 °C; time window: 0-4 h after rhamnose induction
Experimental: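 In vivo DNA recorder in E. coli TOP10(DE3) ΔrhaA at 34 °C. Each TEVp single-site mutant (parent TEVp 0) is paired with a single-site variant of the 7-mer TEVs (canonical ENLYFQ|S). The substrate sits between flexible linkers in a Bxb1-sfGFP-TEVs-SsrA fusion, so cleavage stabilises Bxb1 and speeds flipping of a recombination array, read by NGS. The value is the raw area under the fraction-flipped curve over 0-4 h after rhamnose induction (AUC4h), with ≥20 reads per time point. It is not background-subtracted; inactive controls average about 0.047.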
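Further: Bxb1 expression induced with 0.2% (w/v) L-rhamnose at OD600 near 0.5, cultures sampled hourly, flipped fraction per protease–substrate barcode pair counted by paired-end Illumina sequencing.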

W144D
area with substrate ENLYFAS: 0.0649
area with substrate ENLYFCS: 0.0606
area with substrate ENLYFES: 0.0634
area with substrate ENLYFFS: 0.0628
area with substrate ENLYFGS: 0.0569
area with substrate ENLYFIS: 0.0588
area with substrate ENLYFKS: 0.0592
area with substrate ENLYFLS: 0.0688
area with substrate ENLYFMS: 0.0699
area with substrate ENLYFNS: 0.0572
area with substrate ENLYFPS: 0.0753
area with substrate ENLYFRS: 0.062
area with substrate ENLYFTS: 0.0604
area with substrate ENLYFWS: 0.0364
area with substrate ENLYFYS: 0.0517

P155Q
area with substrate ENLYFAS: 0.0418
area with substrate ENLYFCS: 0.0556
area with substrate ENLYFDS: 0.056
area with substrate ENLYFES: 0.0394
area with substrate ENLYFFS: 0.0557
area with substrate ENLYFGS: 0.043
area with substrate ENLYFHS: 0.0511
area with substrate ENLYFIS: 0.0528
area with substrate ENLYFKS: 0.0568
area with substrate ENLYFMS: 0.0518
area with substrate ENLYFPS: 0.0493
area with substrate ENLYFRS: 0.0502
area with substrate ENLYFSS: 0.0522
area with substrate ENLYFTS: 0.0542
area with substrate ENLYFVS: 0.0529
area with substrate ENLYFWS: 0.0602
area with substrate ENLYFYS: 0.0505

R102Y
area with substrate ENLYFAS: 0.0489
area with substrate ENLYFFS: 0.0361
area with substrate ENLYFIS: 0.0363
area with substrate ENLYFLS: 0.0425
area with substrate ENLYFPS: 0.0442
area with substrate ENLYFRS: 0.0561
area with substrate ENLYFVS: 0.0423
area with substrate ENLYFYS: 0.0257

G136F
area with substrate ENLYFAS: 0.0665
area with substrate ENLYFDS: 0.0576
area with substrate ENLYFES: 0.0981
area with substrate ENLYFFS: 0.0783
area with substrate ENLYFGS: 0.0596
area with substrate ENLYFHS: 0.0663
area with substrate ENLYFIS: 0.0583
area with substrate ENLYFKS: 0.0594
area with substrate ENLYFLS: 0.0627
area with substrate ENLYFMS: 0.0573
area with substrate ENLYFNS: 0.0569
area with substrate ENLYFPS: 0.0697
area with substrate ENLYFRS: 0.0674
area with substrate ENLYFSS: 0.059
area with substrate ENLYFTS: 0.0574
area with substrate ENLYFVS: 0.0464
area with substrate ENLYFWS: 0.0632

F95Y
area with substrate ENLYFAS: 0.0599
area with substrate ENLYFCS: 0.041
area with substrate ENLYFES: 0.0727
area with substrate ENLYFFS: 0.0566
area with substrate ENLYFGS: 0.0545
area with substrate ENLYFIS: 0.0489
area with substrate ENLYFKS: 0.0443
area with substrate ENLYFPS: 0.0515
area with substrate ENLYFSS: 0.0671
area with substrate ENLYFTS: 0.0535
area with substrate ENLYFWS: 0.0589
area with substrate ENLYFYS: 0.0424

H21I
area with substrate ENLYFAS: 0.0678
area with substrate ENLYFCS: 0.0596
area with substrate ENLYFDS: 0.0542
area with substrate ENLYFES: 0.069
area with substrate ENLYFFS: 0.0658
area with substrate ENLYFGS: 0.0733
area with substrate ENLYFHS: 0.0565
area with substrate ENLYFIS: 0.0533
area with substrate ENLYFKS: 0.0661
area with substrate ENLYFLS: 0.0628
area with substrate ENLYFMS: 0.0718
area with substrate ENLYFNS: 0.0671
area with substrate ENLYFPS: 0.0637
area with substrate ENLYFRS: 0.0549
area with substrate ENLYFSS: 0.0628
area with substrate ENLYFTS: 0.0518
area with substrate ENLYFWS: 0.0574
area with substrate ENLYFYS: 0.0592

W212V
area with substrate ENLYFAS: 0.0632
area with substrate ENLYFDS: 0.0657
area with substrate ENLYFES: 0.0729
area with substrate ENLYFFS: 0.0691
area with substrate ENLYFGS: 0.0523
area with substrate ENLYFIS: 0.0617
area with substrate ENLYFKS: 0.0732
area with substrate ENLYFMS: 0.0667
area with substrate ENLYFPS: 0.0582
area with substrate ENLYFRS: 0.0673
area with substrate ENLYFSS: 0.017
area with substrate ENLYFTS: 0.067
area with substrate ENLYFWS: 0.0672

S130R
area with substrate ENLYFAS: 0.0454
area with substrate ENLYFCS: 0.059
area with substrate ENLYFFS: 0.0637
area with substrate ENLYFGS: 0.0441
area with substrate ENLYFHS: 0.0527
area with substrate ENLYFIS: 0.0457
area with substrate ENLYFKS: 0.0644
area with substrate ENLYFMS: 0.0684
area with substrate ENLYFNS: 0.0481
area with substrate ENLYFPS: 0.0581
area with substrate ENLYFRS: 0.0733
area with substrate ENLYFSS: 0.0536
area with substrate ENLYFTS: 0.0427

Y179M
area with substrate ENLYFAS: 0.0709
area with substrate ENLYFCS: 0.0781
area with substrate ENLYFDS: 0.0616
area with substrate ENLYFFS: 0.0608
area with substrate ENLYFGS: 0.0575
area with substrate ENLYFIS: 0.0575
area with substrate ENLYFMS: 0.0575
area with substrate ENLYFNS: 0.0645
area with substrate ENLYFPS: 0.0743
area with substrate ENLYFSS: 0.0543
area with substrate ENLYFTS: 0.0548
area with substrate ENLYFWS: 0.0557

L112A
area with substrate ENLYFAS: 0.057
area with substrate ENLYFCS: 0.0431
area with substrate ENLYFES: 0.0586
area with substrate ENLYFFS: 0.0643
area with substrate ENLYFGS: 0.0547
area with substrate ENLYFHS: 0.0397
area with substrate ENLYFIS: 0.0543
area with substrate ENLYFKS: 0.0667
area with substrate ENLYFLS: 0.0574
area with substrate ENLYFMS: 0.0654
area with substrate ENLYFNS: 0.0667
area with substrate ENLYFPS: 0.0531
area with substrate ENLYFRS: 0.0894
area with substrate ENLYFTS: 0.0598
area with substrate ENLYFVS: 0.0585
area with substrate ENLYFWS: 0.0543
area with substrate ENLYFYS: 0.0608

L5D
area with substrate ENLYFAS: 0.0609
area with substrate ENLYFCS: 0.105
area with substrate ENLYFES: 0.0604
area with substrate ENLYFFS: 0.0784
area with substrate ENLYFHS: 0.0522
area with substrate ENLYFIS: 0.0348
area with substrate ENLYFKS: 0.0522
area with substrate ENLYFLS: 0.053
area with substrate ENLYFMS: 0.0644
area with substrate ENLYFNS: 0.0657
area with substrate ENLYFPS: 0.0672
area with substrate ENLYFSS: 0.0763
area with substrate ENLYFVS: 0.0556
area with substrate ENLYFWS: 0.043

G150C
area with substrate ENLYFAS: 0.0638
area with substrate ENLYFCS: 0.0576
area with substrate ENLYFES: 0.0624
area with substrate ENLYFFS: 0.0644
area with substrate ENLYFHS: 0.0525
area with substrate ENLYFIS: 0.0651
area with substrate ENLYFKS: 0.0626
area with substrate ENLYFLS: 0.0618
area with substrate ENLYFMS: 0.0637
area with substrate ENLYFNS: 0.0495
area with substrate ENLYFPS: 0.0688
area with substrate ENLYFRS: 0.0362
area with substrate ENLYFTS: 0.0597
area with substrate ENLYFVS: 0.0587
area with substrate ENLYFWS: 0.0545
area with substrate ENLYFYS: 0.0464
